Data: PubChem BioAssay AID493208 (National Center for Advancing Translational Sciences (NCATS), 2011)
Hit rate of the full screen: of about 44,000 compounds, about 340 (0.77%) were called active. Roughly 5% stayed inconclusive and do not appear here. Calls follow the shape of the dose curve; as a rule, active = well fitted inhibition curve with a large enough effect; inconclusive = small, poorly fitted or top-dose-only effect; inactive = flat fitted curve, though single readings scatter. This is one part of the list.

Assay: Acumen qHTS Assay for Inhibitors of the mTORC1 Signaling Pathway in MEF (Tsc2-/-, p53-/-) Cells: Sytravon; also: nearly all actives have a fitted effect of over 50% in size
Details: phospho-rpS6 immunofluorescence/PI, 24 h; series mostly up to 38.3 µM; activity change, negative = inhibition: at the top concentration
Summary of the method: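 Readout is phospho-S6 Alexa 488 signal normalized to PI per well, reported as % active cells with thresholds set from rapamycin (7.5 nM) and DMSO controls. Cells: Tsc2-/-, p53-/- MEFs, 24 hrs compound at 37 C; PI cell number serves as viability.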

Activity change, negative = inhibition, inactive:
CC(=O)Nc1ccc(C2Nc3c(C)cc(C)cc3-c3cc(C)nn32)cc1 (stereo unspecified) -1.77%
COc1cc(OC)c(NS(=O)(=O)c2ccc3c(c2)NC(=O)CCS3)cc1Cl 5.84%
Cc1ccc(S(=O)(=O)NCCSc2nnnn2-c2ccc(Cl)c(C(=O)O)c2)cc1 -13.2%
CCOC(=O)c1c(C)oc2nc(C)nc(NCc3ccccc3OCC)c12 -3.13%
Cc1cc(C)cc(Nc2sc(C(=O)c3ccccc3)c(N)c2S(=O)(=O)c2ccccc2)c1 0.87%
CCOC(=O)c1ccc(NC(=O)C(Cc2ccccc2)NS(=O)(=O)c2ccc(Br)s2)cc1 (stereo unspecified) -4.27%
CCCc1nc2ccccc2n2c(-c3cccc(C)c3)c3c(=O)n(C)c(=O)n(C)c3c12 -0.23%
O=C(NCc1ccccc1Cl)C1CCCN(c2ncnc3onc(-c4ccc(F)cc4)c23)C1 (stereo unspecified) 3.91%
COc1cccc(-n2c(SCC(=O)c3ccc(Cl)cc3)nc3c([nH]c4ccccc43)c2=O)c1 -5.49%
CSc1ccc(CNC(=O)c2ccc(NC(=O)c3nsc4ccccc34)cc2)cc1 -10.2%
O=C(NCc1ccccc1Cl)NCc1noc2ccccc12 -6.02%
COC(=O)Cn1c(=O)c2c(nc3n2CCN3c2ccc(F)cc2)n(C)c1=O 6.59%
Cc1ccccc1NC(=O)Cn1c(=O)n(CC2CCC(C(=O)NCCc3ccccc3)CC2)c(=O)c2ccccc21 (stereo unspecified) 7.88%
Cc1ccc(N2C(=O)[C@@H]3CSC(c4ccc(F)cc4)N3C2=O)cc1 (stereo partly specified) -11.8%
CCOc1ccccc1C(=O)Nc1nc2c(s1)CC(C)CC2 (stereo unspecified) -12.2%
Cc1ccc(CNS(=O)(=O)c2ccc(-c3cc(C(F)(F)F)on3)s2)cc1 7.36%
Nc1c(C(=O)Nc2ccccc2)nnn1Cc1ccc(F)cc1Cl -0.386%
Cc1ccc(C(=O)Nc2cc3c(cc2N2CCCC2)n(C)c(=O)c(=O)n3C)cc1 -4.12%
COc1cc(NC(=O)COCc2cc(-c3ccc(F)cc3)on2)cc(OC)c1OC -5.81%
O=C(Nc1ccc(Cl)c(-c2nc3cc(Cl)ccc3o2)c1)c1cc([N+](=O)[O-])ccc1N1CCOCC1 1.18%
Cc1nn(C(C)(C)C)c(OC(=O)C(C)(C)C)c1Sc1ccccc1 -1.88%
O=C(O)CCn1cnc2onc(-c3cc(F)cc(F)c3)c2c1=O 1.95%
CCCOc1ccc(Oc2nc(NCC(C)C)nc(N3CCOCC3)n2)nn1 -4.96%
CC(=O)Nc1ccc(NC(=O)Cn2nc(C(=O)Nc3ccc(C)cc3)ccc2=O)cc1 -0.598%
CCOc1ccc(-c2cc3c(=O)n(CC(=O)NCc4ccc(Cl)cc4)ccn3n2)cc1 4.2%
COc1ccccc1N1CCN(c2nc(-c3ccc(C)cc3)nc3ccccc23)CC1 5.14%
COc1cccc(NC(=O)C2CCCN(S(=O)(=O)c3ccc4[nH]c(=O)ccc4c3)C2)c1 (stereo unspecified) -19%
O=C(Nc1ccc(OCc2cc(=O)n3c4c(sc3n2)CCCC4)cc1)c1ccccc1 -16.4%
CC1CCc2nc3ncn(Cc4ccccc4F)c(=O)c3cc2C1 (stereo unspecified) 1.98%
CCOc1ccc(NC(=O)CN(c2ccc(Cl)cc2C)S(=O)(=O)c2ccccc2)cc1 -2.17%
COc1ccc(N2CC(NC(=O)c3ccc4c(c3)OCO4)CC2=O)cc1 (stereo unspecified) -10.6%
COc1ccc(NC(=O)CN(c2ccc(C)cc2)S(=O)(=O)c2cccc3nonc23)cc1OC -0.403%
CCOc1ccc(OCC)c(NS(=O)(=O)c2c(C(=O)N3CCC(C)CC3)c(C)n(C)c2C)c1 0.605%
Cc1ccc(-n2c(SCC(=O)O)nc3sc4c(c3c2=O)CCCC4)cc1 -1.46%
CCCOc1c(Cl)cc(C(=O)N(Cc2cccc(OC)c2)C2CCS(=O)(=O)C2)cc1Cl (stereo unspecified) -1.55%
COc1ccc(NC(=O)Cn2cnc3c(oc4ccccc43)c2=O)cc1OC 8.04%
CC(C)NC(=O)C1CCC(Cn2c(=O)c3sccc3n(CC(=O)NCc3ccccc3)c2=O)CC1 (stereo unspecified) -9.75%
CCOc1ccc(NC(=O)c2cnc(N3CCCCC3)c3ccccc23)cc1 4.99%
CCOC(=O)c1c(-c2ccccc2)csc1NC(=O)c1cc(-c2ccc(F)cc2)on1 -16.3%
O=C(NCc1ccc2c(c1)OCO2)c1ccc2c(c1)N(Cc1ccccc1)C(=O)c1ccccc1S2=O (stereo unspecified) -14%
CN(c1ccccc1)S(=O)(=O)c1nnc(NC(=O)c2ccccc2)s1 3.64%
CC(C)n1cnc(S(=O)(=O)N2CCCC(C(=O)NCc3ccccc3Cl)C2)c1 (stereo unspecified) 0%
COC(=O)Cn1c(=O)c2cccn2c2cccnc21 -4.16%
CCOc1ccc(C(=O)c2c(N)c(-c3nc(-c4ccc5c(c4)OCO5)cs3)c3ccccn23)cc1 -3.26%
Cc1ccsc1CN(C(=O)c1oc2cc(Br)ccc2c1C)C1CCS(=O)(=O)C1 (stereo unspecified) -13.7%
Cc1cc(C(=O)Nc2ccc(C(C)C)cc2)c2c(C)nn(-c3ccccc3)c2n1 -0.355%
COc1cccc(CNC(=O)CSc2c3c(nc4cc(Cl)ccc24)CCCC3)c1 3.18%
CN(C)CCCN(C(=O)c1ccc2c(c1)OCCO2)c1nc2ccccc2s1 -21.5%
CCOc1ccccc1NC(=O)Cn1cc(C(=O)c2ccc(Cl)cc2)c(=O)c2ccc(C)nc21 2.62%
COc1ccc(Cn2c(=O)c3oc4ccccc4c3n(Cc3cccc(C)c3)c2=O)cc1 4.9%
COc1ccccc1CNc1ccc(-c2nc(-c3ccco3)no2)cc1[N+](=O)[O-] -3.6%
Cc1cccc2c(=O)cc(CSc3ccccc3NC(=O)c3cccc(F)c3)[nH]c12 -0.579%
CC(C)CCNC(=O)c1ccc2c(c1)N(Cc1cccc(Cl)c1)C(=O)c1ccccc1S2 5.16%
CCCC(=O)n1nc(-c2ccco2)nc1NCc1ccccc1Cl -6.24%
O=C(Nc1nnc(S(=O)(=O)N2CCOCC2)s1)c1ccccc1Cl -2.22%
Cc1cc2nn(-c3ccc(F)cc3)nc2cc1NC(=O)c1cccc2ccccc12 -1.07%
COc1ccc(OC)c(CCNC(=O)c2cc3c(=O)oc4ccc(C)cc4c3s2)c1 -14.7%
CC(=O)Nc1ccc(NC(=O)C2CCCN2S(=O)(=O)c2ccc3c(c2)CCCC(=O)N3)cc1 (stereo unspecified) -2.75%
O=C(Nc1ccc2nc(SCc3ccccc3)sc2c1)c1ccccc1F -22%
COc1ccc(N2CCN(C(=O)CN3C(=O)CSc4c3c(C)nn4-c3ccccc3)CC2)cc1 -3.25%
O=C(Nc1ccc2oc(-c3cccnc3)nc2c1)c1ccc(-c2ccc(OC(F)(F)F)cc2)o1 6.16%
Cc1ccc(OCC(=O)Nc2ccc3c(c2)nc(CCNC(=O)c2ccco2)n3C)cc1 -8.5%
COCCCNc1nc2cc(OC)c(OC)cc2c2nc(-c3ccccc3)nn12 -1.42%
Cc1ccccc1N1CC(C(=O)Nc2ccc(Br)cc2)CC1=O (stereo unspecified) -15.2%
COc1ccc(CNC(=O)CN2N=C(c3ccccc3)CCC2=O)c(OC)c1 4.24%
CCn1c(=O)c(=O)n(CC)c2cc(N3CCCCC3)c(NC(=O)c3ccc(Cl)cc3)cc21 4.36%
Cc1nnc(N2CCCC(C(=O)NCc3ccccc3F)C2)c2nn(-c3ccc(Cl)cc3)c(C)c12 (stereo unspecified) -5.68%
COc1ccc(C(=O)NCc2nnc(SCC(=O)Nc3ccccc3)n2-c2ccccc2)cc1 -16.2%
O=C(CSc1n[nH]c(-c2ccccc2)n1)NCCCc1ccccc1 0.72%
Cc1ccc(-n2nnc(-c3nsc(NC(=O)c4cccc(Cl)c4)n3)c2C)cc1C 5.15%
COc1cc(Cl)c(C)cc1NC(=O)c1ccc2c(SCC(=O)O)c3c(nc2c1)CCCC3 6.93%
COc1ccc(-c2nc3cc(C(C)C)ccc3o2)cc1NC(=O)COc1ccc(C)cc1C -15.3%
O=C(Cn1c(=O)c2ccccc2n(CC(=O)Nc2ccc(F)cc2F)c1=O)NCCc1ccccc1 0.703%
Cc1ccc(C)c(Nc2ncnc3onc(C)c23)c1 5.63%
COc1ccc(NC(=O)CCSc2nc(-c3ccco3)cc(C(F)(F)F)n2)cc1 -3.71%
COc1ccc(NC(=O)CSc2ncccc2C(=O)O)cc1OC 12.7%
CCN(C(=O)c1cc2c(=O)oc3ccc(C)cc3c2s1)c1cc(OC)ccc1OC -3.51%
CCC1CCCCN1CCCNC(=O)c1ccc2c(c1)N(Cc1ccccc1)C(=O)c1ccccc1S2(=O)=O (stereo unspecified) -12.6%
CCn1nc(C)c2c(-c3ccccc3)cc(=O)n(C(C)C(=O)NCc3cccc(OC)c3)c21 (stereo unspecified) -2.89%
CCOc1cccc(CC(=O)N2CCc3c([nH]c4ccccc34)C2c2ccccc2)c1OCC (stereo unspecified) 4.39%
CCN(CC)c1ccc(CN(C(=O)Cc2coc3ccc(C)cc23)C2CCS(=O)(=O)C2)cc1 (stereo unspecified) -14.4%
CCc1ccc(OCCCn2c(-c3ccc(Cl)cc3)nc3ccccc3c2=O)cc1 6.25%
Cc1ccc(-c2nc3scc(CCNS(=O)(=O)c4ccc(F)c(C)c4)n3n2)cc1 0.465%
Cc1ccc(Cl)cc1NC(=O)CSc1ccc(C(=O)O)cn1 2.06%
CCN(CC)c1ccc(NC(=O)c2cc(C)nc3c2c(C)nn3-c2cccc(F)c2)c(C)c1 3.33%
c1ccc(-c2nnc(CN3CCN(c4ccccn4)CC3)o2)cc1 5.69%
O=C(NCCSCc1cccc(Cl)c1)C1CCN(S(=O)(=O)Cc2ccccc2)CC1 -1.14%
CCC1CN(C(=O)N2CCC(C(=O)NCCc3ccccc3C)CC2)c2ccccc2O1 (stereo unspecified) 0%
Cc1ccc(OCC(=O)OCc2cc(=O)n3nc(C4CCCCC4)sc3n2)cc1C -6.7%
O=C1CC(c2ccccc2)Sc2nc(-c3ccc(F)cc3)nn21 (stereo unspecified) -14%
O=C(c1[nH]c2ccccc2c1Sc1ccc(Cl)cc1)N1CCCCC1 9.02%
COc1ccc(C(=O)Nc2cc(C(C)C)c(O)c(S(=O)(=O)c3ccc(Cl)cc3)c2C)cc1 -1.46%
CCN(Cc1ccccc1)Cc1c(O)ccc2c(=O)c(-c3ccccc3)c(C(F)(F)F)oc12 -19.1%
CCOc1ccccc1CNCc1c(C(=O)O)c(C)n(Cc2ccc(Cl)cc2)c1C -1.62%
CCc1ccccc1NC(=O)Cn1c(=O)oc2ccccc21 -9.63%
CCCN(C(=O)Cn1nc(Cc2cccnc2)c2ccccc2c1=O)c1ccc(C(C)C)cc1 -10.1%
